Whole data set: some 33,000 sequences, median “E-score (-0.5 to 0.5)” near -0.036, cut for the highest 2% near 0.37. The list shows a part of the results.
molecular target: T1, Yer064c (UniProt P40041); assay: PBM E-score (8-mer binding enrichment) (E-score (-0.5 to 0.5)); higher = stronger / more preferred TF binding; most listed sequences are background and not binding sites; conditions: protein concentration: 200 nM; construct: GST-full length
T1 sequence: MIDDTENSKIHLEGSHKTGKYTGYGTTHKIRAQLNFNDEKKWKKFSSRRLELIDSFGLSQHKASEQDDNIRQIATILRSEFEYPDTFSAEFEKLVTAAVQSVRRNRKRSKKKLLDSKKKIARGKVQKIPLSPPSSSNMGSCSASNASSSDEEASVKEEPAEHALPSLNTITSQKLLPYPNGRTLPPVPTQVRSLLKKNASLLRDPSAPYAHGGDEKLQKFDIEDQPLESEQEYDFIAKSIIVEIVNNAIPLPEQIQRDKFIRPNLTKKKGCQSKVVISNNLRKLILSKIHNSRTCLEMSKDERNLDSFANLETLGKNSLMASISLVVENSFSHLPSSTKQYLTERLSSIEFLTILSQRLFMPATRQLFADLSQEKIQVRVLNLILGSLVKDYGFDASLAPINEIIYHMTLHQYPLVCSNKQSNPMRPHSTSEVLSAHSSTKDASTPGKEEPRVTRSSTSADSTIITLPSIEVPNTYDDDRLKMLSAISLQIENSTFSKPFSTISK
Method in brief: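 PURExpress in vitro transcription/translation supplied GST-tagged yeast transcription factors, either full-length or DNA-binding domain. Applied at about 100-200 nM to universal all-10-mer Agilent arrays double-stranded by primer extension, the bound protein was detected with fluorescent anti-GST. E-scores, modified Wilcoxon-Mann-Whitney statistics, were given by the Universal PBM Analysis Suite to ungapped eight-base words pooled with their reverse complements after masliner normalisation.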

Sequence | PBM E-score
ACAGGTAT | -0.13
AGAAGATG | -0.0613
ACCACTCC | -0.202
CCATGTTC | -0.128
AGATCCGG | -0.242
GACGCGAA | -0.0422
AAAAGAAT | -0.057
ACGCACGT | -0.182
ACGATAGA | -0.0655
TCTAAAAA | 0.107
ACCTTTTC | 0.122
CTGCAGTA | 0.0872
CCCGCCGC | -0.118
TGAAAGAA | 0.176
GTTTGACA | 0.0291
CGGGTAGA | -0.155
AAGGGGAG | -0.0644
CATCACCA | -0.0269
CCTCCACG | -0.0173
ATTTGCGA | -0.0454
GCCGCAGC | -0.127
ACCTCATG | -0.159
GGAGAATA | 0.0358
GTTTTAAA | 0.0848
GCGGGTGA | 0.188

Sequence | PBM E-score
CGTGCGGC | -0.109
CAGAAGCG | -0.0432
ACCGTAGC | -0.0264
GTGTCCAA | -0.0522
GTAATTAC | 0.00874
TAGTTGCA | -0.0728
CGTCAACC | -0.225
GATATTTA | 0.00233
CCACGACA | -0.139
CAGGGAGG | -0.129
CTGTTATC | -0.0697
ACGCTGGA | -0.0542
AAACGTCA | -0.121
CCACTACG | -0.0486
GGTGGGCA | -0.269
GAGACAGA | 0.0413
ATTCGGTC | -0.119
CAACGCGA | -0.0437
ACCGCGCA | -0.135
GTTGGCCA | -0.141
GAACGAGA | 0.0156
ACGGACGC | -0.0198
ATCATCAG | 0.186
TATGTAAA | 0.0283
CCGGCGCG | -0.165

Sequence | PBM E-score
CCGCTTCG | -0.332
CGGTTGGA | -0.296
AACAAGCA | -0.143
AGTATCAA | 0.211
ATTGCAGG | 0.00385
TTTACAAA | -0.0598
ATTGAAAT | 0.139
AGATGGTG | -0.147
AGGGCTGA | 0.187
TACACATA | 0.199
AGGTAGCG | -0.191
GAGGATAA | -0.0753
ACTGAACA | 0.175
GCATATGC | -0.246
ACGCCGGC | -0.109
AGCAAGAG | -0.0205
AAGTAAAT | 0.00185
ATGGACAC | 0.0425
CTGCTTTC | -0.0573
AGGGCCGA | 0.0374
ACGCGGCA | -0.341
CGGTAGCA | -0.0626
CAGGATGC | -0.25
GAAAAGAA | -0.178
AAGCATGC | -0.129

Sequence | PBM E-score
AGCTGTGC | -0.223
CGACTAAG | 0.399
GGCACACC | -0.301
ATTTTCCC | -0.214
GTATTTAA | -0.0173
TCTACGAA | 0.0737
TCTGCAGA | 0.172
AGATCTAG | -0.14
ATTTGATA | 0.169
AGCATACT | -0.101
CCATACTA | 0.0172
CTCGTACC | -0.0914
GCCTCGAC | -0.235
ACGTAAGG | 0.0173
AGTGGGAG | -0.0674
AGTGTCGC | -0.00958
ACAACCTG | -0.087
ATAGATAT | -0.0311
ATACACCA | 0.0312
CTACCGAC | -0.128
ATTTTGAC | 0.175
GCCCAGCC | -0.298
AAAACGGT | -0.155
GACTATAA | 0.389
ACTGATCC | 0.177

Sequence | PBM E-score
AACCACCC | 0.14
AATCACAG | 0.359
CAATTACG | 0.0589
AAACAAAT | 0.123
GCAAAACC | -0.109
CTGAAACC | 0.0165
CCCTAGAA | -0.24
ACACGTAT | -0.0726
CAGAACGG | -0.0244
CGTCCCGA | -0.158
AAGTACCT | -0.093
CGAAATTC | -0.245
ATGCTGGC | -0.175
ACGATCAC | -0.076
CGGAAATA | 0.0101
AACTGCTT | -0.116
AATAGCCC | -0.188
ATTGGTTA | 0.0687
TACGCGGA | 0.0427
ACGCCGCG | -0.279
AGAATGTA | -0.0771
GGTTGCAA | -0.0993
CCCGAACA | -0.0615
AGGGCGAT | -0.0756
CCATATCC | -0.26

Sequence | PBM E-score
GCCTTCGC | -0.141
CGTGCGAA | -0.165
GGTACGTA | 0.00178
CAAGGCAA | -0.116
ACCCAAAA | -0.0796
ACCCGGCG | -0.173
TATATACA | 0.113
AGCAGACT | 0.206
CAGACTGA | 0.134
CTATTTCC | -0.168
ACATACGT | -0.112
CACACCCC | -0.052
AGGGGGTG | -0.178
ATAGGTCA | 0.1
ACAATGAC | 0.255
GAATTTAC | -0.162
CGCCTGAA | -0.117
ACAGGCTG | 0.0126
GACAAGGC | -0.143
ACGGGAAA | -0.111
AATAACTG | 0.0476
GCTCGAGC | -0.142
ACCATTAT | -0.103
CGCGTCGC | -0.139
AAGGTAAA | -0.0345

Sequence | PBM E-score
TGACATAA | 0.0718
AACAATCT | -0.0771
TATTAACA | 0.0799
AGAAGTGG | -0.224
GCACCTAA | -0.0313
AGTCGGTG | 0.274
AATGCGAG | -0.0423
CACGATGG | -0.0596
ACGCGAAT | 0.0131
GGACTAGA | 0.0793
ATGAAGGC | -0.153
CTTAACCA | 0.197
AGATGACC | 0.136
ACATGTAT | 0.0408
CGCAAGCA | 0.0122
CGCCCTCA | -0.254
TAAACGAA | -0.0847
ACCGCAGG | -0.0456
AACTTCTT | 0.0156
AACATAGA | -0.0377
CATGTGAC | 0.234
GGACCCGA | -0.0905
GTGACAAA | -0.129
TCGTGAAA | -0.0516
TAAATACA | 0.00626

Sequence | PBM E-score
AACTCTCG | -0.105
TGTGCTAA | 0.0249
GGACTTTA | 0.0759
AACCTTAG | 0.018
AGGCGTCG | -0.28
CAGTTATG | 0.0856
AGTATGCG | -0.121
CCCCGCCA | -0.14
AGACTTAT | 0.208
GCACCCGA | -0.206
AAATAATA | 0.137
AACGTGCT | -0.238
CGGCAGAC | -0.0424
ACCAACGG | -0.309
AGCGGTTG | -0.0774
AGCAGGGG | -0.282
ATGGTGCC | -0.358
CTGTGCTC | -0.0234
GAACTCAA | 0.145
AGCGGCTG | -0.17
GAAAGGGA | -0.165
GCACTAAC | -0.183
ATCCTGGC | -0.15
AATTCAGC | -0.175
AATTTTGT | 0.161

Sequence | PBM E-score
AGCACGAC | -0.0281
CACAGTCC | 0.132
CCACTGTA | -0.0726
AATCGGAC | 0.00956
AAGTCCAC | -0.0143
GCGTATCA | -0.00444
CAGCGGCA | -0.135
GGCGTGAA | -0.0487
ACTGAGCG | 0.023
ACCAGTGA | 0.192
CTAGCCTC | -0.167
GAATTGAA | -0.0107
CGACTTGA | 0.0865
CACACTAG | 0.0144
ACGACGTG | -0.036
TGACAGCA | 0.0239
ACGAATGA | 0.152
GGCTACAA | 0.115
ATCGGAAA | 0.0651

— the supplement of paper PMC3334620
